{"source": "paper PMC9911399", "about": "“Two distinct binding modes provide the RNA-binding protein RbFox with extraordinary sequence specificity”", "binders": {"B1": {"name": "AAACAAG (DNA:RNA)", "RNA": "GGGAGACCGGAAUUCAGAUUGUCCAAACAAGUUAAAUCCCGUCGUAGCCACCA", "DNA 1": "CAATCTGAATTCCGGTCTCCC", "DNA 2": "TGGTGGCTACGACGGGATT"}, "B2": {"name": "UCUACUA (DNA:RNA)", "RNA": "GGGAGACCGGAAUUCAGAUUGUCCUCUACUAUUAAAUCCCGUCGUAGCCACCA", "DNA 1": "CAATCTGAATTCCGGTCTCCC", "DNA 2": "TGGTGGCTACGACGGGATT"}, "B3": {"name": "UGCUCUU (DNA:RNA)", "RNA": "B2 RNA with C26G, U27C, A28U, A31U", "DNA 1": "CAATCTGAATTCCGGTCTCCC", "DNA 2": "TGGTGGCTACGACGGGATT"}, "B4": {"name": "GGUACAA (DNA:RNA)", "RNA": "B2 RNA with U25G, C26G, U30A", "DNA 1": "CAATCTGAATTCCGGTCTCCC", "DNA 2": "TGGTGGCTACGACGGGATT"}, "B5": {"name": "UACUACA (DNA:RNA)", "RNA": "B1 RNA with A25U, A27C, C28U, A30C, G31A", "DNA 1": "CAATCTGAATTCCGGTCTCCC", "DNA 2": "TGGTGGCTACGACGGGATT"}, "B6": {"name": "CCUUACG (DNA:RNA)", "RNA": "B1 RNA with A25C, A26C, A27U, C28U, A30C", "DNA 1": "CAATCTGAATTCCGGTCTCCC", "DNA 2": "TGGTGGCTACGACGGGATT"}, "B7": {"name": "UAGGCAG (DNA:RNA)", "RNA": "B1 RNA with A25U, A27G, C28G, A29C", "DNA 1": "CAATCTGAATTCCGGTCTCCC", "DNA 2": "TGGTGGCTACGACGGGATT"}, "B8": {"name": "AUAUGCC (DNA:RNA)", "RNA": "B1 RNA with A26U, C28U, A29G, A30C, G31C", "DNA 1": "CAATCTGAATTCCGGTCTCCC", "DNA 2": "TGGTGGCTACGACGGGATT"}, "B9": {"name": "UGUUUAG (DNA:RNA)", "RNA": "B1 RNA with A25U, A26G, A27U, C28U, A29U", "DNA 1": "CAATCTGAATTCCGGTCTCCC", "DNA 2": "TGGTGGCTACGACGGGATT"}, "B10": {"name": "AACACCA (DNA:RNA)", "RNA": "B2 RNA with U25A, C26A, U27C, U30C", "DNA 1": "CAATCTGAATTCCGGTCTCCC", "DNA 2": "TGGTGGCTACGACGGGATT"}, "B11": {"name": "AGUUUGG (DNA:RNA)", "RNA": "B1 RNA with A26G, A27U, C28U, A29U, A30G", "DNA 1": "CAATCTGAATTCCGGTCTCCC", "DNA 2": "TGGTGGCTACGACGGGATT"}, "B12": {"name": "UGAAAUG (DNA:RNA)", "RNA": "B1 RNA with A25U, A26G, C28A, A30U", "DNA 1": "CAATCTGAATTCCGGTCTCCC", "DNA 2": "TGGTGGCTACGACGGGATT"}, "B13": {"name": "ACUCAAU (DNA:RNA)", "RNA": "B1 RNA with A26C, A27U, G31U", "DNA 1": "CAATCTGAATTCCGGTCTCCC", "DNA 2": "TGGTGGCTACGACGGGATT"}, "B14": {"name": "AUUGCAU (DNA:RNA)", "RNA": "B1 RNA with A26U, A27U, C28G, A29C, G31U", "DNA 1": "CAATCTGAATTCCGGTCTCCC", "DNA 2": "TGGTGGCTACGACGGGATT"}, "B15": {"name": "CAGGUGG (DNA:RNA)", "RNA": "B1 RNA with A25C, A27G, C28G, A29U, A30G", "DNA 1": "CAATCTGAATTCCGGTCTCCC", "DNA 2": "TGGTGGCTACGACGGGATT"}, "B16": {"name": "CUCUUAU (DNA:RNA)", "RNA": "B1 RNA with A25C, A26U, A27C, C28U, A29U, G31U", "DNA 1": "CAATCTGAATTCCGGTCTCCC", "DNA 2": "TGGTGGCTACGACGGGATT"}, "B17": {"name": "UAUCGCA (DNA:RNA)", "RNA": "B2 RNA with C26A, A28C, C29G, U30C", "DNA 1": "CAATCTGAATTCCGGTCTCCC", "DNA 2": "TGGTGGCTACGACGGGATT"}, "B18": {"name": "ACCUUGG (DNA:RNA)", "RNA": "B1 RNA with A26C, A27C, C28U, A29U, A30G", "DNA 1": "CAATCTGAATTCCGGTCTCCC", "DNA 2": "TGGTGGCTACGACGGGATT"}, "B19": {"name": "ACCUGUA (DNA:RNA)", "RNA": "B2 RNA with U25A, U27C, A28U, C29G", "DNA 1": "CAATCTGAATTCCGGTCTCCC", "DNA 2": "TGGTGGCTACGACGGGATT"}, "B20": {"name": "CUCGGGA (DNA:RNA)", "RNA": "B2 RNA with U25C, C26U, U27C, A28G, C29G, U30G", "DNA 1": "CAATCTGAATTCCGGTCTCCC", "DNA 2": "TGGTGGCTACGACGGGATT"}}, "note": "Substitutions are numbered along the chain they refer to; changes in the protein carry UniProt numbers. Some of the results follow."}
{"biological_target": "T1, RBFOX1 RRM RbFoxmut (Fox-RRM*) (Homo sapiens, UniProt Q9NWB1 109-208, R118D;E147R;N151S;E152T)", "T1 sequence": "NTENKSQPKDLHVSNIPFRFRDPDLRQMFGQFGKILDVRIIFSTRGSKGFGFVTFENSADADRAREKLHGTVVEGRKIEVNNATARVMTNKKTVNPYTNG", "assay": "EMSA; HiTS-Eq, 1 nM pool, 10 min; buffer printed only for the single-RNA assays: 10 mM Tris pH 7.5, 150 mM NaCl, 3.4 mM EDTA, 0.001% NP-40, 30 C", "conditions": "tags: His6 N-terminal (pET28a); label: 5' 32P", "procedure,_shortened": "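A pool of RNA with 7 randomized nucleotides, 5′-radiolabelled and with DNA-annealed flanks, was equilibrated at 1 nM for 10 min in 50 µL with purified RbFox RRM, wild type or mutant, across increasing protein concentrations. Free RNA was separated by 8% native PAGE, excised, reverse-transcribed, barcoded by PCR and sequenced. Relative association constants were obtained from read-count changes of each RNA species versus the control reaction and normalised to the cognate motif.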"}
{"binder": "B1", "binding signal": "0.0927 KA relative to UGCAUGU"}
{"binder": "B2", "binding signal": "0.112 KA relative to UGCAUGU"}
{"binder": "B3", "binding signal": "0.0655 KA relative to UGCAUGU"}
{"binder": "B4", "binding signal": "0.0729 KA relative to UGCAUGU"}
{"binder": "B5", "binding signal": "0.139 KA relative to UGCAUGU"}
{"binder": "B6", "binding signal": "0.121 KA relative to UGCAUGU"}
{"binder": "B7", "binding signal": "0.0736 KA relative to UGCAUGU"}
{"binder": "B8", "binding signal": "0.223 KA relative to UGCAUGU"}
{"binder": "B9", "binding signal": "0.125 KA relative to UGCAUGU"}
{"binder": "B10", "binding signal": "0.115 KA relative to UGCAUGU"}
{"binder": "B11", "binding signal": "0.118 KA relative to UGCAUGU"}
{"binder": "B12", "binding signal": "0.158 KA relative to UGCAUGU"}
{"binder": "B13", "binding signal": "0.0571 KA relative to UGCAUGU"}
{"binder": "B14", "binding signal": "0.13 KA relative to UGCAUGU"}
{"binder": "B15", "binding signal": "0.0789 KA relative to UGCAUGU"}
{"binder": "B16", "binding signal": "0.112 KA relative to UGCAUGU"}
{"binder": "B17", "binding signal": "0.106 KA relative to UGCAUGU"}
{"binder": "B18", "binding signal": "0.114 KA relative to UGCAUGU"}
{"binder": "B19", "binding signal": "0.156 KA relative to UGCAUGU"}
{"binder": "B20", "binding signal": "0.0642 KA relative to UGCAUGU"}
